Data published in PubChem BioAssay AID1347120 (National Center for Advancing Translational Sciences (NCATS), 2019).
In all, about 390,000 compounds went through this assay and about 930 (0.24%) were called active. Inconclusive results, whose numbers are uncertain, are shown with a selection of clear calls. The call rests on the fitted dose curve; in most records, active means well fitted activation curve with a large enough effect; inconclusive means small, poorly fitted or top-dose-only effect; inactive means no such curve, though single readings can be large or run the other way. Potencies of inconclusive entries are doubtful fits and often do not repeat.

Assay: qHTS for Suppressors of FUS Proteinopathy: Primary screen using FUS-linked yeast assay; further: nearly all actives have a fitted effect of over 55% in size;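 on growth rescue (activation): plate controls were DMSO vehicle for no effect and reference control for full effect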
Settings: S. cerevisiae FUS-expressing, OD600, 24 h; Potency: growth rescue; growth rescue (activation): at 76.6 µM (top of the series)
Summary of the method: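 Steps: raffinose overnight preculture; dilution to OD 0.005 in 2% galactose minimal medium; compound addition (concentration series); 24hr at 30C, 99% humidity; absorbance read at 600 nm.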
Potency means the concentration at half of the fitted maximal effect; tags describe the fitted curve by direction and shape.

SMILES | Potency | growth rescue (activation)
COC(=O)c1ccc(CNC(=O)c2c3c(nc4ccccc24)CCN(Cc2ccccc2)C3)cc1 | inconclusive: 22.4 µM [activator, partial curve, poor fit] | 
CCN1C(=O)[C@@H]2[C@@H](c3ccc(-c4ccc(OC)cc4)cc3)N3CCC[C@@]3(C(=O)OC)[C@@H]2C1=O | inactive | 
Cc1ccc(OCC(=O)NC2CCCC2)c(C)c1 | inactive | 
Cc1cc(C)c(C#N)c(SCc2[nH]nc3c2C(c2ccccc2)C(C#N)=C(N)O3)n1 (stereo not given) | inconclusive: 11.2 µM [activator, partial curve, poor fit] | 
Cc1ccc(C)c(N2CCN(C(=O)CCC(=O)N3CCOc4ccc(Cl)cc43)CC2)c1 | active: 25.1 µM | 
Cc1ccc(-c2c(C(=O)NCCc3ccccc3)oc(=O)c3ccccc23)cc1 | inconclusive: 35.5 µM [activator, single point] | 
Nc1ccc2c(c1)OC1(CCCC1)O2 | inconclusive: 5.01 µM [activator, partial curve, poor fit] | 
Cc1cc2c(cc1C)N(C(=O)CSc1nncn1C)C(C)(C)c1ssc(=S)c1-2 | inconclusive: 50.1 µM [activator, single point] | 
CN(CCc1ccccc1)C(=O)c1ccc(NC(=O)Cc2cccc(NC(=O)C3CCN(C(=O)C4CCC4)CC3)c2)cc1 | inconclusive: 22.4 µM [activator, single point] | 
C[C@@H]1CCCCO[C@H](CN(C)C(=O)Nc2ccc3c(c2)OCO3)[C@@H](C)CN([C@H](C)CO)C(=O)c2cc(NS(=O)(=O)c3ccc(F)cc3)ccc2O1 | inconclusive: 31.6 µM [activator, partial curve, poor fit] | 
CC(=O)c1c(C)oc2c1cc(NS(=O)(=O)c1ccc(C(=O)O)cc1)c1ccccc12 | inconclusive: 14.1 µM [activator, partial curve, poor fit] | 
COC(=O)c1c(NC(=O)c2ccco2)sc2c1C(C(=O)OC)CC2 (stereo not given) |  | inconclusive: 54.4% [activator]
C=CCN(C(=O)Cn1nc(C)n2c(cc3cc(C)ccc32)c1=O)c1ccccc1 | inconclusive: 31.6 µM [activator, single point] | 
COc1ccc(-c2nnc(-c3ccc(N(C)C)cc3)o2)cc1 | inconclusive: 25.1 µM [activator, partial curve, poor fit] | 
COc1ccc2c(CC(=O)N3CCN(S(=O)(=O)c4cccs4)CC3)coc2c1 | inactive | 
CC1=C(c2ccc(C)cc2)S(=O)(=O)N(Cc2ccc(C(=O)Nc3ccc(C)c(F)c3)cc2)C1=O | inactive | 
COc1ccc(NC(=O)CSc2nc3sc(C)cc3c(=O)n2C)c(OC)c1 | inconclusive: 39.8 µM [activator, single point] | 
CCOC(=O)c1cc(-c2csc(Nc3c(C)cc(C)cc3C)n2)on1 | inconclusive: 50.1 µM [activator, single point] | 
CC(C)c1ccc(C2=NN(c3ccccc3)C(=O)CC2)cc1 | inconclusive: 44.7 µM [activator, single point] | 
CN1C(=O)c2ccccc2Sc2ccc(NC(=O)N3CCN(c4ccccc4)CC3)cc21 | inconclusive: 6.31 µM [activator, partial curve, poor fit] | 

SMILES | Potency | growth rescue (activation)
COc1ccc(S[C@@H](CCN2CC[C@H](C)CCC2=O)c2ccccc2)cc1 | inconclusive: 25.1 µM [activator, single point] | 
CCn1c(SCC(=O)OC(C)C)nnc1-c1ccccc1 | inactive | 
C[C@@H]1CN([C@@H](C)CO)C(=O)c2cc(NS(=O)(=O)c3ccc(F)cc3)ccc2O[C@@H](C)CCCCO[C@H]1CN(C)C(=O)NC1CCCCC1 | inconclusive: 25.1 µM [activator, single point] | 
CCN(CC)S(=O)(=O)c1ccc(Cl)c(NC(=O)COC(=O)c2cccn2C)c1 | inactive | 
Cc1ccc(-c2c(C(=O)NCC(C)C)oc(=O)c3ccccc23)cc1 | inactive | 
O=C(NCC(c1cccs1)S(=O)(=O)c1cccs1)c1cccc(F)c1 (stereo not given) | inactive | 
O=C(NCCCN1CCOCC1)c1ccc(Cl)s1 |  | inconclusive: 33% [activator]
COc1ccccc1NC(=O)Nc1nn(C)c2cccc(N(C)C)c12 | inconclusive: 11.2 µM [activator, partial curve] | 
COc1cccc(-c2cnc3c(NC(C)=O)cc(-c4ccc(OC)c(OC)c4)cn23)c1 | inconclusive: 31.6 µM [activator, partial curve, poor fit] | 
N#Cc1c(N)sc2c1CCCCCC2 | inconclusive: 35.5 µM [activator, single point] | 
O=C(Nc1ccc2c(c1)OCO2)N1CCN(C/C=C/c2ccccc2)CC1 | inactive | 
COc1ccc(CNC(=S)Nc2ccccc2)cc1Cl | inactive | 
Cc1cccc(-n2ncc3c(NC(C)C)ncnc32)c1 | inactive | 
Cc1ccc(NC(=S)/C(C#N)=C2/Nc3ccccc3S2)cc1 | inconclusive: 25.1 µM [activator, single point] | 
CC(=O)N1c2ccc(S(=O)(=O)N3CCC(C(=O)Nc4cccc(Cl)c4)CC3)cc2CC1C (stereo not given) | inconclusive: 11.2 µM [activator, single point] | 
CCCCOc1ccc(CNC(=O)c2ccc3c(c2)N(C)C(=O)C2CCCCN32)cc1 (stereo not given) | inconclusive: 28.2 µM [activator, single point] | 
COc1ccc(CNC(=O)COC(=O)[C@H](Cc2c[nH]c3ccccc23)NC(=O)c2cccs2)cc1 | inconclusive: 25.1 µM [activator, single point] | 
COc1ccc(-c2csc(NC(=O)CS(=O)(=O)c3ccc(F)cc3)n2)cc1OC | inconclusive: 10 µM [activator, partial curve] | 
Cc1ccc(S(=O)(=O)N2C3CCCCC3O[C@H]2CC(=O)c2cccc3ccccc23)cc1 (stereo not given in full) | inconclusive: 20 µM [activator, single point] | 
Cc1ccc([C@H]2C[C@@H](O)[C@H](n3cc(-c4ccc(F)cc4)nn3)CN2C(=O)C2CCCCC2)cc1 | inconclusive: 50.1 µM [activator, single point] | 
